Reference: article PMC12136788
Some of the results follow.

T1: UNK ZnF1-3 (human, UniProt Q9C0B0 31-174)
T1 sequence: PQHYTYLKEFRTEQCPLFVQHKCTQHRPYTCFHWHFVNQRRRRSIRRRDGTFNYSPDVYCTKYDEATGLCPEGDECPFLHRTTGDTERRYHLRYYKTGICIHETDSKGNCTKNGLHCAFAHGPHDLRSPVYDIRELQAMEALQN

B1: chr8:94190273:94190274:+_ENSMUSG00000055932_ENSMUST00000069718|mus_mus|FALSE|FALSE (ssRNA)
RNA: GGGAGUUCUACAGUCCGACGAUCGGAUCUUGCUUCCAGCAGCUGGCCUCUGAGCUCGGAAACCACGUCUGUGAGGUCAAAGGGCAGAGGCAUGGAAGGGUCAUCCUUCUCCCAAUAUGGCCGGCAGUCUGGUUUCUGCUGUACCAACAGAGGAUUGAGCAUCA
B2: chrX:71549762:71549763:+_ENSMUSG00000019087_ENSMUST00000019231|mus_mus|mus_mus_mus_hu_False|78_108 (ssRNA)
RNA: GGGAGUUCUACAGUCCGACGAUCAAAGUGUACCACUUCUUAUUGUUAGCACAACAUUCCCCCCCAACGAUAACGACAGCCAAGCAGGACAGACAGUUAAGUAGUACUUCCACACUCCCAAACUCAGGGAGCCCUAUAACCUUACAACAGAGGAUUGAGCAUCA
B3: chr16:94690093:94690094:+_ENSMUSG00000040785_ENSMUST00000117648|mus_hu|mus_mus_mus_hu_True|48_58 (ssRNA)
RNA: GGGAGUUCUACAGUCCGACGAUCGGGCUGGGAUGACGGACACACAGCCUCGAUUCCAGGGGGAAAAAGUCUUAGUCAAUACUAAUUUAAAAAGUAUAAUGAUUUUUGAAAAUCAGAUUACAUCUAUAAAAGAUGAAAAGCAAACAACAGAGGAUUGAGCAUCA
B4: chr4:73765705:73765706:+_ENSMUSG00000049122_ENSMUST00000084474|mus_mus|motif|central (ssRNA)
RNA: GGGAGUUCUACAGUCCGACGAUCGUACCUUGUGAGCUCUUCUUUAAUCUUCAAGGGUUCAUGUGGGUAGAAUUUCACUCGGAAGCACAUGGUGUAUGGUGGAUGAGAUUUCAUUUGCUUGAAGAUGGACUUGUUAGGCUCAAGCAACAGAGGAUUGAGCAUCA
B5: 125897355_125903701_618_CDS_ENSMUSG00000030982_ENSMUST00000106553|mouse|control|control (ssRNA)
RNA: GGGAGUUCUACAGUCCGACGAUCACUCGUGUCUGACAGCAGCUUUGAACACUGGAUGACGAUCUUCAGAGCCUUCACCUUCUGGUCCGAGGCCCAGGCAUCCUUCAGAGACUGGUUGAGCUCCUCUAUGCGGUUCACAUAAUCCAACAGAGGAUUGAGCAUCA
B6: 127909868_127909988_3041_3pUTR_ENSG00000119414_ENST00000373547|human|control|control (ssRNA)
RNA: GGGAGUUCUACAGUCCGACGAUCAUAAGGAAUGGAGAGAAUAUUAUUGGCACGUGCCCAACUAGUGACAAACAAAUGCAGUACACAAUGACUUAAAAAUAAAAGUCACAUUAUAGGGAUAACAAAAACAACUACAUCAAUCUACAACAGAGGAUUGAGCAUCA
B7: chr19:16212804:16212805:+_ENSG00000167460_ENST00000300933|hu_mus|hu_hu_hu_mus_False|8_58 (ssRNA)
RNA: GGGAGUUCUACAGUCCGACGAUCAACAAUUCUGGAGUGAAGGAAAGAUGUAACAUGGAACAGCAUUAAAGCUCAGUAUUACUAUAUAUGGGCAACAAUGAUCACCCCAGCAUUCUCGCUUGGAAUGUGCUUGAGAAAUCUGUUCAACAGAGGAUUGAGCAUCA
B8: chrX:140292434:140292435:-_ENSMUSG00000031285_ENSMUST00000033642|mus_mus|motif|central (ssRNA)
RNA: GGGAGUUCUACAGUCCGACGAUCAAAGACCUAAACAUUCAUGAGCUGUAAGGACAGUGCUUGAAAAGAUCUACUGAGACGGAAACAGGAAAAAAAAAAAGAAAGGGUCAGAAUCAGGUUGUUUUCUACCAACCUACUUGUGACCAACAGAGGAUUGAGCAUCA
B9: chr2:210598762:210598763:+_ENSG00000078018_ENST00000392194|hu_hu|motif|central (ssRNA)
RNA: GGGAGUUCUACAGUCCGACGAUCCAAAACAAUCACUAUACAGCAACAAAUACAUUUGCAAAUUUGAUUGAAAAACAUGAACGGACGGCAACCAGCCAUUGAAGAAAUGCCUUUCUAUGGUAACAGGCUCUAGAAUUAUCAGAACAACAGAGGAUUGAGCAUCA
B10: chr7:65705475:65705476:+_ENSG00000169902_ENST00000304842|hu_mus|motif|central (ssRNA)
RNA: GGGAGUUCUACAGUCCGACGAUCUCUAUUCGGUGAUGGCACUCCAUGGCAUGCUGGCCCAGGUAAAACACGGUCACAGAACGGAUCACCAGACACGCCAAGAGUAAGUUCUGCUUCAGCUUCCCAACCAUCUUGAUGUGGUUACAACAGAGGAUUGAGCAUCA
B11: chr19:16212804:16212805:+_ENSG00000167460_ENST00000300933|hu_mus|hu_hu_hu_mus_False|38_58 (ssRNA)
RNA: GGGAGUUCUACAGUCCGACGAUCAACAAUUCUGGAGUGAAGGAAAGAUGUAACAUGGAACAGCAUUAAAGCUCAGUAUUACUAUAUAUGGGCAACAAUGACUAUUUCAGCAUUCUCGCUUGGAAUGCUUAAAGACAAUCUGUUCAACAGAGGAUUGAGCAUCA
B12: chr11:4127340:4127341:+_ENSG00000167325_ENST00000300738|hu_mus|hu_hu_hu_mus_False|78_78 (ssRNA)
RNA: GGGAGUUCUACAGUCCGACGAUCGGCAUAGUCAGGGUGCUUCGUGGUCAAGGUCGCAGCUGUUUCAGCAGCCAGGGUGUCCAGUUCCACUGUGGUGACCCCACUAUAUAGGCCUUGGAUUACUUUCAUGGUGAUCUGAGCAGGCAACAGAGGAUUGAGCAUCA
B13: chr7:97836282:97836283:+_ENSG00000164715_ENST00000297293|hu_mus|FALSE|FALSE (ssRNA)
RNA: GGGAGUUCUACAGUCCGACGAUCAAAGCGAGGUCUCCCUCUGUGUUAGGGACAGCAGACUCCUCCGAUGAUGUACUGAAGCUACGCUGAAGAUGUGAAAUCCCUUUCAGAACAAGAGGAGAGCUGGGUGCUUGGUACAGGAAACAACAGAGGAUUGAGCAUCA
B14: chr4:40680873:40680874:+_ENSMUSG00000028410_ENSMUST00000030118|mus_hu|FALSE|FALSE (ssRNA)
RNA: GGGAGUUCUACAGUCCGACGAUCCUGAUACCCAGAUUUAAGCAUGUGAACAUAUGAGACUUUUAAACAUACAAUUAAAGCUAUUCAUCAUAAUUUGCUAUACUACCAACAUAACUUUGGAGCGAAAGUCAAAUGGUUUAAAGUCAACAGAGGAUUGAGCAUCA
B15: 38865426_38868500_1348_CDS_ENSG00000157540_ENST00000338785|human|control|control (ssRNA)
RNA: GGGAGUUCUACAGUCCGACGAUCCUUUCUUGCUUUUGGUGCUUGGUCAAGAAUAUGAGCAGGUGGAAUACCCAGAACUUCCACUAUUUUAUUCAUCUGAUCUACCUCAUUGGCACCACUGAACAGAGGUUCUCCAGUGUGCAUCAACAGAGGAUUGAGCAUCA
B16: chr14:31337589:31337590:+_ENSMUSG00000021962_ENSMUST00000022535|mus_hu|FALSE|FALSE (ssRNA)
RNA: GGGAGUUCUACAGUCCGACGAUCAAAUGACCUGUAUCAUAGAAACGAAGACACUUUCAUUCAAAGAAUAUCUUAAAAUUACUAUUGCUGAAAUAAAUCAAAAUCUACAUUAAAAUAUUACUAAACACCAUUACAUGCCAUAAACAACAGAGGAUUGAGCAUCA
B17: chr14:65392728:65392729:+_ENSG00000258289_ENST00000359118|hu_mus|FALSE|FALSE (ssRNA)
RNA: GGGAGUUCUACAGUCCGACGAUCAUACUCGUGUCUGGCUACUACAUGAUGACAGUUCUUACACAGAUGGUCAUAGGUAACUAUUUCUUCUCCAUCUUCCUCUUUCAGGGAUCUGUUUGUGAUCAGCAUAAAGUCCCGCUUACUCAACAGAGGAUUGAGCAUCA
B18: chr12:39763582:39763583:-_ENSG00000139116_ENST00000544797|hu_mus|hu_hu_hu_mus_False|18_88 (ssRNA)
RNA: GGGAGUUCUACAGUCCGACGAUCCUCUAGGAACUGGGCAUUCACUUUAAAAUCUGGAGGGGGCAGCCCGUUUUUAAUCGCUGAGGUCUUUUUCUCAUCAAUACUCUUGAACAGGUGUUUAACAGCUCGAGAGAUGAUGCCCUGCAACAGAGGAUUGAGCAUCA
B19: chr16:45382771:45382772:-_ENSMUSG00000022661_ENSMUST00000163230|mus_mus|mus_mus_mus_hu_True|8_58 (ssRNA)
RNA: GGGAGUUCUACAGUCCGACGAUCCUGGGUCAUGUUAUAAGACAAAUGGACAGGGAGGGCAUGCUUCUCAAAAAAUGUGAACUACUCUCUAAGACUAACAAUAUUUAUCUAGCUAUAAAAAUAAGUUUUAAAUGGACGUUAAGACAACAGAGGAUUGAGCAUCA
B20: chr11:16760304:16760305:+_ENSG00000110696_ENST00000422258|hu_hu|FALSE|FALSE (ssRNA)
RNA: GGGAGUUCUACAGUCCGACGAUCCACCCCAUGCGGGUGAGACUCUCUGGCAGCACUCAUCCUUGCGGGGAUCCCGACGAAAAAUGCCGAACCCUCUCGCCGCUCUUCCCAGCCGCAAAACCAGCAGCUUACAAUCCGCCAAGGCAACAGAGGAUUGAGCAUCA
B21: chr11:46405157:46405158:+_ENSG00000110492_ENST00000395566|hu_hu|hu_hu_hu_mus_False|18_18 (ssRNA)
RNA: GGGAGUUCUACAGUCCGACGAUCCCCUCCCCACUUUGGGCACUUGGUGUGGGCGUGAGAGGACAGGCGUGAUUGACAGAGCUGACAGGAAGACAAAAGGCACUGGUGGGUUAUAUCUCGGGCCUGGGGGAGAGGAGGGCUCCGCAACAGAGGAUUGAGCAUCA
B22: chr1:109605286:109605287:-_ENSG00000197780_ENST00000461096|hu_mus|hu_hu_hu_mus_True|68_68 (ssRNA)
RNA: GGGAGUUCUACAGUCCGACGAUCAAGUUUCAGAGUAACAUUCAGUAACCUCUUUAAAUGCAAUUAUCCUUACUUUAAGCUAAGCAGAAUAAUAAUUUAAUACCGUAAGUGAACUACACACAAAGCCUGAACCGCGAAAAUGGUCAACAGAGGAUUGAGCAUCA

molecular target: T1, UNK ZnF1-3; test: nsRBNS (natural sequence RNA bind-n-seq); RBNS binding buffer (assumed for nsRBNS): 25 mM Tris pH 7.5, 150 mM KCl, 3 mM MgCl2, 0.01% Triton X-100, 500 ug/ml BSA, 20 U/ml SUPERase-In, 4 C; UNK is unkempt and MSI1 is Musashi-1; names of the RNAs are library labels; protein concentration not given here; high values mean tight binding

Row | Binder | binding signal
1 | B1 | 0.615 enrichment R
2 | B2 | 1.69 enrichment R
3 | B3 | 0.861 enrichment R
4 | B4 | 0.743 enrichment R
5 | B5 | 0.9 enrichment R
6 | B6 | 1.13 enrichment R
7 | B7 | 1.32 enrichment R
8 | B8 | 1.45 enrichment R
9 | B9 | 1.53 enrichment R
10 | B10 | 0.537 enrichment R
11 | B11 | 0.924 enrichment R
12 | B12 | 1.03 enrichment R
13 | B13 | 1.46 enrichment R
14 | B14 | 1.08 enrichment R
15 | B15 | 0.842 enrichment R
16 | B16 | 1.15 enrichment R
17 | B17 | 0.682 enrichment R
18 | B18 | 1.89 enrichment R
19 | B19 | 2.47 enrichment R
20 | B20 | 1.17 enrichment R
21 | B21 | 2.59 enrichment R
22 | B22 | 0.754 enrichment R
